Source: the supplement of paper PMC11417369
± gives the standard deviation of the averaged measurements. This is one part of the list.

system: PfAP2-LT AP2 domain (GST-tagged); test: gcPBM binding intensity (ln(normalized median fluorescence intensity)); higher = stronger DNA binding
Outline: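 GST-tagged P. falciparum DNA-binding domains produced in E. coli were incubated for 1 h on an Agilent 4 × 180k array of primer-extended double-stranded 36-bp intergenic genomic probes with negative controls. Binding intensity is the highest Masliner-normalised natural-log median intensity across replicate spots of either probe orientation, with bound protein detected by Alexa488 anti-GST antibody at 488 nm.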

| Sequence | gcPBM binding intensity (ln) |
| --- | --- |
| CATACATACGGACACACACACATATATATATATATA [CACACA_site5598] | 10.3 ± 0.15 |
| TATATAAGCGCATGCACACGCAAAGGTATATAAATA [CACACA_site622] | 9.39 ± 0.4 |
| AAAAAAAAAAAATAGACCTCCTAAGCAAAAGAAAAA [GTGCAC_negctrl_site634] | 8.62 ± 0.53 |
| AATATAAATAAAAACACACACAATGGTACAGATATA [CACACA_site5930] | 9.4 ± 0.36 |
| AATTTAAATTAGAATTGTACTAGAAAAGGAATATAT [XGTACX_site6162] | 8.55 ± 0.5 |
| AATTATATAATCTTATAACATAATATAATAACATTT [CACACA_negctrl_site187] | 8.4 ± 0.45 |
| ATAATTTTCCATATTTGTACATATTTTTTTCCCTTG [XGTACX_site8146] | 8.92 ± 0.59 |
| ATTCTATTATAATATTCACACACTAACGTAAATCAT [CACACA_site2750] | 9.05 ± 0.39 |
| TAATGACTGAAAAATTGTACATATGTATATATGTAT [XGTACX_site2415] | 8.84 ± 0.41 |
| TATTTATTTGTTTAAGGTACAGAACAAATTTTTATT [XGTACX_site7414] | 8.39 ± 0.47 |
| AAATGTTCTTAAAAATGAATAATATATATATATATA [CACACA_negctrl_site796] | 8.89 ± 0.014 |
| CATAAATACATACATACACACATATATATATATATA [CACACA_site2106] | 9.88 ± 0.085 |
| ATATTTATTATTATATGTACGTAACATCTTTATAAA [XGTACX_site7016] | 8.86 ± 0.49 |
| AAATGTTGAAAAATATGTACATATTATATATATTAT [XGTACX_site1165] | 8.77 ± 0.42 |
| TAAGAAAGACAAAAAAAATGAAAAGAAAAAAAATGA [CACACA_negctrl_site1469] | 8.59 ± 0.49 |
| AATATAAGCAAATACACACACACATATATATATATA [CACACA_site3805] | 10.29 ± 0.035 |
| ATTTAGAAAAAATATACACACAGCCTAAACATGCAT [CACACA_site4067] | 9.07 ± 0.45 |
| TTATCCTATACAAGGGAAAAATAAAATAAAATAAAT [TGCATGCA_negctrl_site272] | 8.66 ± 0.49 |
| TAAAAAATATTATATACACACAGTATAAAAAAAAAT [CACACA_site4012] | 8.95 ± 0.49 |
| ATTGATTATTTTCTAGTGCATAAAATAATTTTTTTT | 8.43 ± 0.42 |
| ATATACATATTATAATGTACATATTTTAATAACCTT [XGTACX_site7617] | 8.69 ± 0.35 |
| AGTGTCATATAAAATTGTACTTTTTTTTTTTTCTTT [XGTACX_site5651] | 8.55 ± 0.6 |

| Sequence | gcPBM binding intensity (ln) |
| --- | --- |
| ATAATGAACAATATTATATATAAAATATAATTTATA [GTGCAC_negctrl_site564] | 8.51 ± 0.38 |
| ATGTATGTTTGTTATGCACACAAATGCATCTTATTT [CACACA_site8861] | 9.44 ± 0.54 |
| GAGAAATGGGGACACACACACATATTATATATATAT [CACACA_site4943] | 9.77 ± 0.37 |
| AAGCACAAAAAATACACACACAAAAAATAAAAAAAG [CACACA_site1840] | 9.48 ± 0.44 |
| TATATGCATAATAACTGTACACAAATTGGGGTTGAT [XGTACX_site459] | 8.98 ± 0.4 |
| ATATAAATATATGTATGTACGCATGTATGTATCTAT [XGTACX_site3290] | 9.21 ± 0.4 |
| TTTTAATTTATTTATGCACACATATATAATTACACA [CACACA_site8126] | 8.97 ± 0.46 |
| AAAAATAAACAATATATAGTTATATATATATATATA [TGCATGCA_negctrl_site82] | 9.23 ± 0.39 |
| ATTATATATATGTGCACACAAAAGATATATATATAT [CACACA_site5205] | 9.95 ± 0.26 |
| AAATAATTTACTTAATGTACATATATATATATATAT [XGTACX_site8594] | 9.41 ± 0.45 |
| ATATTTATTTGTTAGTGTACATACATATATATATAT [XGTACX_site1347] | 9.13 ± 0.47 |
| TTTTCTATGCTAAACACACTCATTGTTACAAGTTTT [CACACA_site5531] | 8.84 ± 0.49 |
| TATATATATTTTATATGTACGTATGGAACAATATGA [XGTACX_site8167] | 8.59 ± 0.38 |
| TTATTTATTTTTTATACACACAATTATCATTTTAAG [CACACA_site22] | 8.82 ± 0.4 |
| TTTTCAATTAATAATACACACATGTATTTATTATTA [CACACA_site5774] | 8.78 ± 0.43 |
| AATTATATACATAAGTGTACATAATATATAAACATA [XGTACX_site793] | 8.81 ± 0.45 |
| TGTTGTAAATTAAAGACATGCACGTGAGAAAATATA [TGCATGCA_site285] | 9.4 ± 0.57 |
| TTAATTAGAAATCATACACACATATAAATAAATATA [CACACA_site6225] | 8.82 ± 0.39 |
| TTATTCTGACAGAATTGTACTAATGTCTTTAAAAAA [XGTACX_site1256] | 8.21 ± 0.3 |
| TGTGCCTATAAATTAACACACAGAAATATATAGAGA [CACACA_site818] | 9.02 ± 0.36 |
| TATTTGTTTGTTCGGGTGCTTACATATATTCTTATA [GTGCAC_site9972] | 9.06 ± 0.39 |
| TAAGTTTATTGAAATTGTACAAACATAAATGTAAAA [XGTACX_site162] | 8.52 ± 0.49 |

| Sequence | gcPBM binding intensity (ln) |
| --- | --- |
| TTATATTTTTTTTTTTCACACACATTTATATTGTAT [CACACA_site9025] | 9.3 ± 0.46 |
| TATACTAAGAAGTATTTACACACCAACAAGGCGAAA [CACACA_site8963] | 8.87 ± 0.42 |
| TTATTTTCATATAGGTGTACATAAAAATATTCTTAT [XGTACX_site8861] | 8.56 ± 0.56 |
| AAATTAAGTATATATTGTACACATAATATGATTGTA [XGTACX_site3083] | 8.66 ± 0.39 |
| ATGTTCATTATATGCACACATATATATAAATGTAAT [CACACA_site2908] | 9 ± 0.34 |
| TATCATAAAAAATATACACACAAAGGATATATATAT [CACACA_site1571] | 9.05 ± 0.29 |
| ATTTTTCTTTTTAATACACACAAAAGTGATACAAAC [CACACA_site3923] | 8.8 ± 0.42 |
| TGTATTATATATACACAAATATTTATGTGTGTGTTT [XGTACX_negctrl_site475] | 9.65 ± 0.3 |
| TTTTTTTGTATTTGTTTATTTAATGATAAAATTAAA [CACACA_negctrl_site225] | 8.21 ± 0.4 |
| AAATAATATTTTTTTTTTTTTTTTTTTTTATGTTAT [CACACA_negctrl_site809] | 8.37 ± 0.52 |
| ATACAGTTGCATATGGTGCACGAATAATACACCTAT | 9.01 ± 0.42 |
| ATAGTCTTAATGACTACACACCTAACTATGCATGCA [CACACA_site5084] | 9.14 ± 0.37 |
| TGGTAGTATATCATAGAAATCATTGTATAACAAATA [XGTACX_negctrl_site569] | 8.67 ± 0.48 |
| AAAAAAAAAAAAAAAACACACAAATCATAAATAAAT [CACACA_site478] | 8.76 ± 0.52 |
| TTTCGTTCATAAAAAAGTACATATGAGCAAAAGGTA [XGTACX_site8936] | 8.69 ± 0.37 |
| GAATTAAAATAATACGTACACACATGTATAATACAT [CACACA_site1004] | 9.21 ± 0.29 |
| TATATATATATATATAGTACATATTTATATATGAAA [XGTACX_site8488] | 8.98 ± 0.18 |
| ACTAAACTAATATGTACACACATATAACATTAATTT [CACACA_site7128] | 9.06 ± 0.41 |
| CACAATACTTTCATCACACATATATATATATATATA [CACACA_site4677] | 9.77 ± 0.3 |
| TTGTTCTATTTAAGTAGTACATACACACACATATAC [XGTACX_site8484] | 9.52 ± 0.38 |
| ACATATATATATTCTACACACTTATAATATAATACA [CACACA_site2461] | 8.86 ± 0.37 |
| AGGTTTCATTTAGCATGTACATATTATAAAAATTGT [XGTACX_site8448] | 8.65 ± 0.32 |

| Sequence | gcPBM binding intensity (ln) |
| --- | --- |
| AAGATTACTTATATATGTACACATAATACAAATGTC [XGTACX_site520] | 8.89 ± 0.27 |
| AAAAAATTATACCTTTGTACATAAATAAAATATTAT [XGTACX_site418] | 8.54 ± 0.42 |
| TATGTATATATTTACGCATGCTACTCTATTTTGAGA [TGCATGCA_site990] | 9.06 ± 0.47 |
| ATAACATAAGGAAATACACACATATATAAGTATATA [CACACA_site778] | 9.21 ± 0.45 |
| ACCCATTGCTCACGTGCACACATAGAAAAATAATTC [CACACA_site4389] | 9.16 ± 0.4 |
| ATAGTATCTGGTAGCTGTACGAGTCGTAGAGTGTAG [XGTACX_site2030] | 9.05 ± 0.47 |
| TATAATAATAATTATTGTACGATTAGGTTAATTCAT [XGTACX_site1984] | 8.49 ± 0.38 |
| AGAAAGGTGGTATTAAAAGAATAACCTATGAATAAA [GTGCAC_negctrl_site325] | 8.66 ± 0.62 |
| TATGTATTTTTTAAGTGTACCTATATATATATATAT [XGTACX_site7934] | 9.255 ± 0.035 |
| TGGGAAGGGTGGGAAACTTTATCAAAAACTTATTAC [GTGCAC_negctrl_site16] | 8.98 ± 0.24 |
| TTTTAGAGTGGTATATATTAATTTTTAATAAAAAAA [CACACA_negctrl_site1652] | 7.95 ± 0.45 |
| ATAATATATACTATATGTACATATCTTTTCCTCTTT [XGTACX_site5553] | 9.26 ± 0.75 |
| TTTTTCATAAAAAAATAAAAAAAATTAACATAGAAA [XGTACX_negctrl_site11] | 8.21 ± 0.39 |
| TGTGCATAAATTTATGCACACATAAAAAAAAAAAAA [CACACA_site8954] | 8.91 ± 0.47 |
| AATAAAAGAAGACAGAGTACACAGGTTGTATTTTCC [XGTACX_site7208] | 8.96 ± 0.43 |
| TTGTGTAAAGGTATTATTGTATTATTCAAAATAAAA [XGTACX_negctrl_site167] | 8.39 ± 0.6 |
| AATATATAATATATATGTACTTATATATAAAAGATA [XGTACX_site7635] | 8.76 ± 0.42 |
| ATTTATTAATATCCCAGTACTCATGGGGAATAATGA [XGTACX_site4014] | 8.57 ± 0.41 |
| TTTATATAAATTTATTCACACAACTAATTTTTTAAA [CACACA_site4848] | 8.17 ± 0.45 |
| TGATAAATTAAAAATTGTACTATTATAATAATATAT [XGTACX_site6615] | 8.36 ± 0.48 |
| ACAATAAACATATATACACACACAAAAAAAAAAACA [CACACA_site8033] | 9.64 ± 0.33 |
| ATCAAATAGAGACACACACACCTAAACATAAAAGAA [CACACA_site7321] | 9.78 ± 0.48 |
